{"source": "paper PMC4336329", "about": "(PLoS ONE, 2015)", "note": "About 2,200 (0.71%) of roughly 310,000 compounds showed an effect of 50% or more. The effect is printed as a negative number. Some of the results follow.", "data": [{"biological_target": "human ether-à-go-go-related gene (hERG) potassium channel (human, UniProt Q12809)", "sequence (Q12809 whole entry, looked up)": "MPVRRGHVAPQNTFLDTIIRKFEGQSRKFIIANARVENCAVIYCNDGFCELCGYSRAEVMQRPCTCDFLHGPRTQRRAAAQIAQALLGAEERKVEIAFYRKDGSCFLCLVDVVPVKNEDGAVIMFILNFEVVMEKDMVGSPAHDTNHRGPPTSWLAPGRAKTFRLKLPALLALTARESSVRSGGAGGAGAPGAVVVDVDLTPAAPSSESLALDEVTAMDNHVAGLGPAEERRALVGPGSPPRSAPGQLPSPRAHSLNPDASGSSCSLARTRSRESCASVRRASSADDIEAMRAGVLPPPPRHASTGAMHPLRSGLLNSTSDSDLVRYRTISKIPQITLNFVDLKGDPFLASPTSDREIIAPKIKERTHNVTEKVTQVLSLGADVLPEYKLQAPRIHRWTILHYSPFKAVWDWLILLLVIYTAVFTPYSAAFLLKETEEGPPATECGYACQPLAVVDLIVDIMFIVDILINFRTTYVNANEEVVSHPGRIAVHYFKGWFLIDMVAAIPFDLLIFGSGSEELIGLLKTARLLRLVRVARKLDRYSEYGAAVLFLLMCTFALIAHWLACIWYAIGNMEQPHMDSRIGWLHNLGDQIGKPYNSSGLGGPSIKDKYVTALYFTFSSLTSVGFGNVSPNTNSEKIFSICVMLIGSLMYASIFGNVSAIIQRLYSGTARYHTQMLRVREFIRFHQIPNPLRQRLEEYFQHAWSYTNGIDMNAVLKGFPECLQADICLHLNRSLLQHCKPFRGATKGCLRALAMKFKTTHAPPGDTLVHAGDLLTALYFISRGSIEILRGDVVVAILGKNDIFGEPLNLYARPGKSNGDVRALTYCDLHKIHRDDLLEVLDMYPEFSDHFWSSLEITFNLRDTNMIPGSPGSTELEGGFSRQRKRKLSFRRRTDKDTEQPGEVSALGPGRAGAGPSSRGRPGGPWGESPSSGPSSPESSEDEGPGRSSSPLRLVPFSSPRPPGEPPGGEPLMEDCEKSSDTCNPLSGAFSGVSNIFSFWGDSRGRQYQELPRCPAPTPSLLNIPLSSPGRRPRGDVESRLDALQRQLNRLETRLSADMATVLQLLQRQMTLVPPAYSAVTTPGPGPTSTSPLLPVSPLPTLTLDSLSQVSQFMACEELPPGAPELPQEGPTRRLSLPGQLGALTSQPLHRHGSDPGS", "assay": "primary screen, population patch clamp on CHO cells stably expressing hERG", "units": {"hERG current change (%, negative = inhibition) at 1uM": "%"}, "values": [{"smiles": "CN(C)c1ccc(N=Nc2ccc(C(=O)O)cc2)cc1", "hERG current change (%, negative = inhibition) at 1uM": 6.87}, {"smiles": "Cc1noc(C)c1C(=O)OCC(=O)c1c[nH]c2ccccc12", "hERG current change (%, negative = inhibition) at 1uM": 8.85}, {"smiles": "CC1CCN(C(=O)CNC(=O)CNC(=O)Cc2ccccc2)CC1", "hERG current change (%, negative = inhibition) at 1uM": 12.2}, {"smiles": "COc1cc(NC(=O)NCC2CCN(Cc3ccc(C)cc3)CC2)cc(OC)c1OC", "hERG current change (%, negative = inhibition) at 1uM": 11.7}, {"smiles": "Cn1cnc2c(N/N=C/c3cccs3)ncnc21", "hERG current change (%, negative = inhibition) at 1uM": 16}, {"smiles": "CC1CCN(C(=O)CCc2ccc(Oc3cc([N+](=O)[O-])cc([N+](=O)[O-])c3)cc2)CC1", "hERG current change (%, negative = inhibition) at 1uM": 2.92}, {"smiles": "COc1ccc(/C=C2\\OC(=S)N(C)C2=O)cc1", "hERG current change (%, negative = inhibition) at 1uM": 17}, {"smiles": "CCCN1CNC(=S)N(c2ccccc2OC)C1", "hERG current change (%, negative = inhibition) at 1uM": 0.455}, {"smiles": "CS(=O)(=O)N(CC(=O)O)c1ccc(Oc2ccccc2)cc1", "hERG current change (%, negative = inhibition) at 1uM": 9.23}, {"smiles": "Cc1ccc(CNC(=O)CSc2nc(N3CCCCC3)nc(N3CCCCC3)n2)cc1", "hERG current change (%, negative = inhibition) at 1uM": 17}, {"smiles": "COc1ccccc1S(=O)(=O)Cc1ccc(C(=O)N2CCCC2)o1", "hERG current change (%, negative = inhibition) at 1uM": 15.9}, {"smiles": "Cc1cc(C(=O)Nc2c(C)nn(Cc3ccc(F)cc3)c2C)on1", "hERG current change (%, negative = inhibition) at 1uM": 6.17}, {"smiles": "COC(=O)c1c(NC(=O)c2cccc(N3C(=O)CCC3=O)c2)sc2c1CCN(C(C)=O)C2", "hERG current change (%, negative = inhibition) at 1uM": 6.55}, {"smiles": "Cc1cccc(NC(=S)N=Nc2c(O)[nH]c3ccccc23)c1", "hERG current change (%, negative = inhibition) at 1uM": 7.3}, {"smiles": "CCCCOCCCn1c(N)c(C(=O)OCCOC)c2nc3ccccc3nc21", "hERG current change (%, negative = inhibition) at 1uM": -0.912}, {"smiles": "Cc1ccc(S(=O)(=O)N(CC(=O)N2CCc3ccccc3C2)c2cccc(Cl)c2)cc1", "hERG current change (%, negative = inhibition) at 1uM": 3.36}, {"smiles": "NC(=O)C1Cc2ccccc2CN1C(=O)c1nn(Cc2ccccc2)c(=O)c2ccccc12", "note": "(centres unmarked)", "hERG current change (%, negative = inhibition) at 1uM": -5.84}, {"smiles": "NS(=O)(=O)c1ccc(NC(=O)COC(=O)c2cnccn2)cc1", "hERG current change (%, negative = inhibition) at 1uM": 8.19}, {"smiles": "C#CC(CC)(CC)NC(=O)c1nn(-c2ccccc2Cl)c(C)cc1=O", "hERG current change (%, negative = inhibition) at 1uM": 16.2}, {"smiles": "CC(C)CCNC(=O)C(c1ccco1)N(C(=O)Cn1nnc2ccccc21)c1ccc2c(c1)OCO2", "note": "(centres unmarked)", "hERG current change (%, negative = inhibition) at 1uM": -1.26}, {"smiles": "C#CCOCCOCCOCCNc1nc(N2CCN(C(=O)CCCCCCCCCCNC(=O)[C@H]([C@@H](C)CC)n3cc(CCCCN=C(N)N)nn3)CC2)nc(N2CCN(C(=O)CCCCCCCCCCNC(=O)[C@@H]([C@H](C)O)n3cc(C)nn3)CC2)n1", "hERG current change (%, negative = inhibition) at 1uM": 14.8}, {"smiles": "CCN(CC)CC(=O)N1c2ccccc2CCc2ccc(NC(=O)c3cc(OC)c(OC)c(OC)c3)cc21", "hERG current change (%, negative = inhibition) at 1uM": 7.61}, {"smiles": "COc1cc2c(C(=O)N3CCN(C)CC3)c(C)oc2cc1Br", "hERG current change (%, negative = inhibition) at 1uM": -16.2}, {"smiles": "COc1ccc2c(C)c(CC(=O)N3C[C@H]4C[C@@H](C3)c3cccc(=O)n3C4)c(=O)oc2c1C", "hERG current change (%, negative = inhibition) at 1uM": 10.5}, {"smiles": "COc1ccc(C(=O)NC(=S)NNC(=O)c2ccccc2O)cc1", "hERG current change (%, negative = inhibition) at 1uM": 15.1}, {"smiles": "COCCn1c(N)c(N(Cc2ccccc2)C(=O)C2CCCC2)c(=O)[nH]c1=O", "hERG current change (%, negative = inhibition) at 1uM": 11.6}, {"smiles": "COc1ccc(N/C(=C(/C(Cl)=C(Cl)Cl)[N+](=O)[O-])n2nnc3ccccc32)cc1OC", "hERG current change (%, negative = inhibition) at 1uM": 12.5}, {"smiles": "CSc1ccccc1NC(=S)N/N=C/c1cccn1Cc1ccc(F)cc1", "hERG current change (%, negative = inhibition) at 1uM": 11.9}, {"smiles": "Cn1c(=O)c(C(=O)NCCO)c(O)c2ccccc21", "hERG current change (%, negative = inhibition) at 1uM": 7.69}, {"smiles": "O=C(O)C1C2C=CC(C2)C1C(=O)NCCc1ccncc1", "note": "(centres unmarked)", "hERG current change (%, negative = inhibition) at 1uM": 11.1}, {"smiles": "O=C(c1ccc(Cl)c(S(=O)(=O)N2CCCC2)c1)N1CCN(c2ccccc2)CC1", "hERG current change (%, negative = inhibition) at 1uM": 6.96}, {"smiles": "O=C(CN1CCN(C(=O)C2CCCO2)CC1)Nc1cc(Cl)ccc1Cl", "note": "(centres unmarked)", "hERG current change (%, negative = inhibition) at 1uM": -4.93}, {"smiles": "COc1ccc(C(=O)NC(=S)Nc2ccc(N3CCOCC3)cc2)cc1Cl", "hERG current change (%, negative = inhibition) at 1uM": 13.5}, {"smiles": "COc1ccc(CN2C(=O)c3cccnc3C2=O)cc1S(=O)(=O)N(C)c1cccc(C)c1", "hERG current change (%, negative = inhibition) at 1uM": 10.1}, {"smiles": "O=C(CCCOc1ccccc1)n1nnc2ccccc21", "hERG current change (%, negative = inhibition) at 1uM": 14.9}, {"smiles": "O=C(Cc1ccccc1F)NC1CCCN(Cc2ccc(Cl)cc2)C1", "note": "(centres unmarked)", "hERG current change (%, negative = inhibition) at 1uM": 8.12}, {"smiles": "CC(=O)NC(=S)Nc1ccc(NC(=O)COc2ccc(Cl)cc2Cl)cc1", "hERG current change (%, negative = inhibition) at 1uM": 12.8}, {"smiles": "O=C(N/N=C/c1cccc(O)c1)c1ccc2c(c1)OCCO2", "hERG current change (%, negative = inhibition) at 1uM": 10.3}, {"smiles": "CCOC(=O)CN(C(=O)CNC(=O)c1cccs1)C(C(=O)NC1CCCCC1)c1cccs1", "note": "(centres unmarked)", "hERG current change (%, negative = inhibition) at 1uM": 11.9}, {"smiles": "CC(C)C(C)NC(=O)COC(=O)c1cccc(C(=O)OCC(=O)NC(C)C(C)C)n1", "note": "(centres unmarked)", "hERG current change (%, negative = inhibition) at 1uM": 5.12}, {"smiles": "Cc1ccc(S(=O)(=O)NC(CC(C)C)C(=O)NCCCn2nc(C)cc2C)cc1", "note": "(centres unmarked)", "hERG current change (%, negative = inhibition) at 1uM": 8.59}, {"smiles": "COc1cc(C(=O)Nc2scc(-c3ccc(Br)cc3)c2C(=O)O)cc(OC)c1OC", "hERG current change (%, negative = inhibition) at 1uM": 19.5}, {"smiles": "COc1ccc(CNC(=O)CN(Cc2ccco2)C(=O)CNS(=O)(=O)c2ccccc2)cc1", "hERG current change (%, negative = inhibition) at 1uM": 5.2}, {"smiles": "O=c1[nH]c(/C=C/c2ccccn2)nc2ccccc12", "hERG current change (%, negative = inhibition) at 1uM": 13.3}, {"smiles": "O=C1c2ccccc2C(=O)N1CSc1nnc2c3ccccc3n(CCc3ccccc3)c2n1", "hERG current change (%, negative = inhibition) at 1uM": 11.3}, {"smiles": "CCn1c(CCNC(=O)c2ccc(OC)cc2)nnc1SCc1ccc(Cl)c(Cl)c1", "hERG current change (%, negative = inhibition) at 1uM": -1.18}, {"smiles": "CC(C)(C)NCC(=O)N/N=C/c1ccc(OCc2ccccc2)cc1", "hERG current change (%, negative = inhibition) at 1uM": 4.72}, {"smiles": "O=C1/C(=C/c2cccnc2)SC(=S)N1c1ccc(O)cc1", "hERG current change (%, negative = inhibition) at 1uM": 12.7}, {"smiles": "COc1ccc(S(=O)(=O)N2CCCCC2)cc1NC(=O)Cn1c(=O)cnc2ccccc21", "hERG current change (%, negative = inhibition) at 1uM": 2.11}, {"smiles": "COc1ccc(Cl)cc1S(=O)(=O)N1CCN=C1C", "hERG current change (%, negative = inhibition) at 1uM": 7.72}, {"smiles": "COC(=O)C/C=N/N=C1/NC(=O)/C(=C/C(=O)O)S1", "hERG current change (%, negative = inhibition) at 1uM": 6.62}, {"smiles": "O=C(CSc1ncn(-c2ccccc2)n1)Nc1nc2ccccc2s1", "hERG current change (%, negative = inhibition) at 1uM": 1.55}, {"smiles": "Nc1nc(Nc2ccccc2)n[nH]1", "hERG current change (%, negative = inhibition) at 1uM": 10.7}]}]}
